Assay results published in publication PMC4336329 (PLoS ONE, 2015).
The campaign covered roughly 310,000 compounds. About 2,200 (0.71%) showed an effect of 50% or more. Effects have a minus sign here. Some of the results follow. Where a SMILES comes first, the peptide text is derived from it. [ ]: non-standard residue; d: D form. The star is where a group is joined. ξ: configuration not given here. ξPhe(4-Me) = Cc1ccc(CC(N)C(=O)O)cc1; Bz = O=C(c1ccccc1)*

Each compound was assayed against human ether-à-go-go-related gene (hERG) potassium channel (human, UniProt Q12809) (assay: primary screen, population patch clamp on CHO cells stably expressing hERG).
human ether-à-go-go-related gene (hERG) potassium channel, sequence (Q12809 whole entry, looked up): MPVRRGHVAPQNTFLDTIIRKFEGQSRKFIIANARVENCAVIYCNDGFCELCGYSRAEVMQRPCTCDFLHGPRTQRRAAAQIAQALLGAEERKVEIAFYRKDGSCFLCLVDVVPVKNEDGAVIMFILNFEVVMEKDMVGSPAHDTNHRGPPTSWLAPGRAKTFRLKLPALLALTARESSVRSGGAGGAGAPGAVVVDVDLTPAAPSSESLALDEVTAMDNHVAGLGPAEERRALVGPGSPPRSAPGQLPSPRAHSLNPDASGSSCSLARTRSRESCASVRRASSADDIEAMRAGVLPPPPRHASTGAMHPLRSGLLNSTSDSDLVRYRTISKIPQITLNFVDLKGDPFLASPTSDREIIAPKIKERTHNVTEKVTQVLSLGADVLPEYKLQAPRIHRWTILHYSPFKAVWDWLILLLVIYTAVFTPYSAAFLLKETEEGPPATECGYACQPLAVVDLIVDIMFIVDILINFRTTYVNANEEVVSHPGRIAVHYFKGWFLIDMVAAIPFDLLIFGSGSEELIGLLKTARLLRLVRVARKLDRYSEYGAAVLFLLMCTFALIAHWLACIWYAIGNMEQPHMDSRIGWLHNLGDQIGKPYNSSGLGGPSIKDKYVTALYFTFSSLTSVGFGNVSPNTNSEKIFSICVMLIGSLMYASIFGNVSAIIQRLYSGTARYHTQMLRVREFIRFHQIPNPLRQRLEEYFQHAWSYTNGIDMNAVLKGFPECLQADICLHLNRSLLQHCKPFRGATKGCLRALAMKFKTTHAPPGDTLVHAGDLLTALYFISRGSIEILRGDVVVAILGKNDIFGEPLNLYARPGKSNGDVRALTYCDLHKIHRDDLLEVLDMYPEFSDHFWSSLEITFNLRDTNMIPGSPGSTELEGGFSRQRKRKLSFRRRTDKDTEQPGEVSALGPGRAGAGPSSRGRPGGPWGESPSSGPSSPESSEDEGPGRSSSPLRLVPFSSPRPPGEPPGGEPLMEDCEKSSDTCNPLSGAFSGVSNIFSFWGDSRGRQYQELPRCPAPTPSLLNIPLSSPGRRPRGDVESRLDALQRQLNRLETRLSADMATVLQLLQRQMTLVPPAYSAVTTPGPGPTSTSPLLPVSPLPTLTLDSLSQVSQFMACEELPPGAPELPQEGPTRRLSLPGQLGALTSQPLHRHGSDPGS

SMILES | hERG current change (%, negative = inhibition) at 1uM [%]
CCOC(=O)[C@H](CCc1ccccc1)N[C@@H](C)C(=O)N1CCC[C@H]1C(=O)O.O=C(O)/C=C\C(=O)O | 17.7
COc1ccccc1N1CCN(Cc2cc(=O)c(OCC(=O)NC3CCCC3)co2)CC1 | -5.97
CCOC(=O)N1CCN(C(=O)CN(C2CCCCC2)S(=O)(=O)c2c(C)cc(C)cc2C)CC1 | 6.09
Cc1cc(N2CCCCC2)n2ncc(-c3ccccc3)c2n1 | 9.98
Cc1ccc(-c2nnc(SCC(=O)CC(=O)Nc3ccccc3)n2-c2ccccc2)cc1 | -8.23
CCOC(=O)C1CCCN(C(=O)c2sc3nc(-c4ccc(F)cc4)cn3c2C)C1 (centres unmarked) | -17.8
COc1ccc2c(c1)C(=O)CC(c1ccccc1F)O2 (centres unmarked) | -5.78
O=C(CCc1ccccc1)NC(=S)NCc1ccco1 | 2.67
COc1ccc(CCNC(=O)c2ccccc2OCc2c(C)noc2C)cc1 | 0.113
CCCCc1nc2cc(C(=O)N(C)C3CCOCC3)ccc2o1 | 12.3
CN(Cc1ccccc1)c1ccc(S(=O)(=O)N2CCOCC2)cn1 | 6.19
CCC(=O)c1c(NC)cc(C)oc1=O | -5.11
COc1ccccc1C(=O)NNC(=O)c1ccccc1 | 9.59
N/C(Cc1ccc(Cl)cc1Cl)=N\OC(=O)Cc1cccs1 | 2.98
Cc1csc(=Nc2c(C)n(C)n(-c3ccccc3)c2=O)n1Cc1ccccc1 | -4.69
Cc1ccc(SCc2ccc(C(=O)NCc3ccncc3)cc2)cc1 | -5.21
O=C(NC1CCCCC1)C1CCN(S(=O)(=O)c2cccc3nsnc23)CC1 | 16.2
CCOc1ccc(N2C(=O)C3C(c4ccccc4F)NN(C(=O)c4ccc(C)cc4)C3C2=O)cc1 (centres unmarked) | 5.89
CCCc1[nH]c(=O)c(C#N)c2c1COC(C)(C)C2 | 17.4

SMILES | hERG current change (%, negative = inhibition) at 1uM [%]
CN(c1ccc(C(=O)NCc2ccc3c(c2)OCO3)cc1)S(C)(=O)=O | -3.58
OCCn1c(SCCOc2ccccc2F)nc2ccccc21 | 2.78
Cc1onc(-c2ccccc2)c1CNC(=O)CN1C(=O)c2ccccc2C1=O | 11
COc1ccc(CCNC(=O)c2ccc(CNS(=O)(=O)c3cc(C)ccc3C)cc2)cc1OC | -4.81
C=CCn1c(CCC(O)CCCCC)n[nH]c1=S (centres unmarked) | 11.6
C=CCn1c(CCNC(=O)c2cccs2)nnc1SCC(=O)c1ccc(Br)cc1 | -5.35
CCc1cccc(C)c1NC(=S)NCc1ccc2[nH]c(C)cc2c1 | 11.4
Cc1ccc(CC(NC(=O)c2ccccc2)C(=O)NCC(=O)O)cc1 (centres unmarked) (Bz-[ξPhe(4-Me)]-Gly-OH) | -2.48
Cc1ccc(S(=O)(=O)N(C)CC(=O)Nc2nc3ccccc3s2)cc1 | -9.27
COc1cc(NC(=O)CCC(=O)Nc2ccc3nc(N4CCOCC4)cc(C)c3c2)cc(OC)c1OC | 4.83
COc1ccc(OC)c(C(C)NC(=S)Nc2ccc(S(=O)(=O)Nc3ncccn3)cc2)c1 (centres unmarked) | 9.37
COc1ccc(C2N3CC4(C)CN2CC(C)(C3)C4=O)cc1OC (centres unmarked) | 1.56
O=C(O)Cc1ccc(O)c(O)c1 | -1.89
COc1cc(/C=C/C(=O)O)cc(S(=O)(=O)Nc2ccccc2Cl)c1OC | 6.2
Cc1cc(C)c(S(=O)(=O)N2CCN=C2c2ccccc2)c(C)c1 | 6.65
Cc1ccc(C)c(S(=O)(=O)NCCCn2ccnc2)c1 | 1.95
CS(=O)(=O)N(CC(=O)N/N=C/c1cccc2c1OCCO2)c1ccccc1Br | 6.98
Cn1c(=O)c2c(ncn2CC(=O)N2CCN(c3ccccc3)CC2)n(C)c1=O | 8.13
Cc1ccc(CN(c2ccc(C(=O)NCc3ccccn3)cc2)S(C)(=O)=O)cc1 | 0.446

SMILES | hERG current change (%, negative = inhibition) at 1uM [%]
CCOC(=O)c1csc(N/N=C2\CCCc3ccccc32)n1 | 9.49
O=C(O)COc1ccc(Br)cc1/C=C1/SC(=O)N(CC(=O)N2CCCC2)C1=O | 11.5
CC1CCCCC1NC(=O)COc1ccc(-n2cnnn2)cc1 (centres unmarked) | 1.26
Cc1cc(C)cc(OCc2nc3ncc(Br)cc3[nH]2)c1.Cl | 13
CC(=O)Cn1c(CN2CCN(C(=O)c3ccco3)CC2)nc2c1c(=O)n(C)c(=O)n2C | 16.9
COc1ccc(CSCC(=O)Nc2ccccc2)cc1[N+](=O)[O-] | 9.15
S=c1nc[nH]c2nc[nH]c12 | 15.1
Cn1c(=O)oc2cc(S(=O)(=O)NC3CCCCCCC3)ccc21 | -5.78
Cc1cc(C)cc(N(CC(=O)Nc2cccc(C)n2)S(=O)(=O)c2c(C)noc2C)c1 | -1.31
O=C(NCCCN1CCN(CCCNC(=O)c2cc([N+](=O)[O-])ccc2Cl)CC1)c1cc([N+](=O)[O-])ccc1Cl | 2.67
O=C(NCCc1ccc(Cl)cc1)C1CCCN1C(=O)NCc1ccccc1 (centres unmarked) | 8.15
FC(F)(F)c1nnc2sc(-c3ccco3)nn12 | 13.2
Cc1ccc(NC(=O)COC(=O)c2ccc(-n3cccn3)cc2)cc1C | 3.18
COC1(OC)N=C(N)C2(C#N)C(c3ccccc3)NC(C)=CC12C#N (centres unmarked) | 4.43
O=C(COC(=O)c1ccccc1OCc1ccccc1Cl)NC1CC1 | 5.78
CCOC(=O)CNC(=O)CSc1nnc(-c2ccncc2)n1-c1ccc(Cl)cc1 | 4.07
COCCNC(=O)CN(c1ccc(F)cc1)S(=O)(=O)c1ccc2c(c1)OCCO2 | 13.1
O=C(c1cnn(C(=O)COc2ccc(Cl)cc2)c1)c1ccccc1O | 9.58
